Measurements: PubChem BioAssay AID651820 (National Center for Advancing Translational Sciences (NCATS), 2012)
In all, about 340,000 compounds went through this assay and about 12,000 (3.5%) were called active. Inconclusive results, whose numbers are uncertain, are shown with a selection of clear calls. Calls follow the shape of the dose curve; as a rule, active = well fitted inhibition curve with a large enough effect; inconclusive = small, poorly fitted or top-dose-only effect, or another doubt; inactive = no such curve, though single readings can be large or run the other way. Potencies of inconclusive entries are left out as doubtful fits.

assay: qHTS Assay for Inhibitors of Hepatitis C Virus (HCV); conditions: Huh7.5.1 HCVcc-Cre (HCVcc is cell-culture hepatitis C virus) infection, luciferase reporter, 44 h; activity change, negative = inhibition: at 41.8 µM (top of the series) unless noted
How it was run: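 Infectious HCV cell culture screen: compound-treated cells (1,000/well, pre-plated 4 h) are infected with HCVcc-Cre at roughly 0.5 moi and grown 44 h. Infection is quantified by luciferase signal after 15 min substrate incubation at room temperature.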
% is scaled to controls: 0 for no effect and ±100 for the full control effect; potency is read from the fitted curve at half-maximal effect; tags tell the direction and shape of the fitted curve.

Question: For `O=[N+]([O-])c1ccc(-c2nc(NCc3ccccc3)c3ccccc3n2)cc1`, which Potency is on record?
Answer: inconclusive [inhibitor, partial curve, poor fit]

Question: For `COc1ccc(N2CCN(C(=O)c3cccc(Cn4cc(Cl)cn4)c3)CC2)cc1`, which Potency is on record?
Answer: inconclusive [inhibitor, full curve]

Question: For `Cc1cc(C(=O)COC(=O)Cc2n[nH]c(=O)c3ccccc23)c(C)n1-c1cccc(C(F)(F)F)c1`, which Potency is on record?
Answer: inconclusive [inhibitor, partial curve]

Question: Which Potency does the source give for `CC(NCC(O)COc1ccc(Br)cc1)c1ccccc1` (stereo not given) here?
Answer: inconclusive [inhibitor, single point]

Question: Which Potency does the source give for `Cc1ccc2nc(SCC(=O)Nc3ccc(F)c([N+](=O)[O-])c3)[nH]c2c1` here?
Answer: inconclusive [inhibitor, single point]

Question: For `CN1C(=O)N(C)C2(c3ccccc3)Nn3c(s/c(=C/c4ccco4)c3=O)=NC12c1ccccc1` (stereo not given), which Potency is on record?
Answer: inactive

Question: For `Cc1c(-c2cccc(Cl)c2)nc2ccccc2c1C(=O)OCC(=O)N(C)C1CCS(=O)(=O)C1` (stereo not given), which Potency is on record?
Answer: active: 3.55 µM

Question: With `COc1cccc(C(=O)NN2c3ccccc3CCc3ccccc32)c1` as the compound, how does the “activity change, negative = inhibition” value read?
Answer: inactive: -6.21%

Question: With `Cc1ccccc1NC1=CC(=O)CC(C)(C)C1` as the compound, how does the “activity change, negative = inhibition” value read?
Answer: inactive: 17.7%

Question: Which “activity change, negative = inhibition” value does the source give for `O=C(Nc1cccc(C(F)(F)F)c1)c1csc(-c2ccncc2)n1` here?
Answer: inactive: -7.73%

Question: For `CCCn1ncc(CN2CCCC(C(=O)c3cccc(OC(C)C)c3)C2)c1C` (stereo not given), which “activity change, negative = inhibition” value is on record?
Answer: inactive: -17%

Question: Which Potency does the source give for `COc1ccc(Cn2nnnc2CN(Cc2cc3cccc(C)c3[nH]c2=O)C2CCCC2)cc1` here?
Answer: inconclusive [inhibitor, partial curve]

Question: For `COc1ccc2[nH]c3c(c2c1)CCN1C(=O)N([C@@H](C)C(=O)NC2CCN(Cc4ccccc4)CC2)C(=O)[C@]31C`, which Potency is on record?
Answer: inconclusive [inhibitor, partial curve]

Question: For `Nc1ccccc1Nc1cc(-c2ccccc2)nn1-c1cccc(Cl)c1`, which Potency is on record?
Answer: inconclusive [inhibitor, partial curve]

Question: Which Potency does the source give for `CCn1cc(CN2CCC(C(=O)Nc3cccc(-c4cccc(Cl)c4)c3)CC2)c(C)n1` here?
Answer: inconclusive [inhibitor, single point]

Question: For `Cc1cccc(N=C2N=C(N)c3ccccc32)c1`, which “activity change, negative = inhibition” value is on record?
Answer: inactive: 9.6%

Question: For `NC(=O)Cc1ccc(C(=O)CSc2nnc(-c3ccncc3)n2C2CC2)s1`, which “activity change, negative = inhibition” value is on record?
Answer: inactive: -0.925%

Question: With `Cc1ccc(N(C)S(=O)(=O)c2cccc(C(=O)NC3=NCCS3)c2)cc1` as the compound, how does the Potency read?
Answer: inconclusive [inhibitor, partial curve]

Question: Which Potency does the source give for `Cc1noc(C)c1CSc1nnnn1-c1ccc(Cl)cc1` here?
Answer: inconclusive [inhibitor, single point]

Question: For `COc1ccc(C(C(=O)NC2CCCCC2)N(C(=O)c2snc(C(N)=O)c2N)c2ccc(OC)cc2OC)cc1` (stereo not given), which Potency is on record?
Answer: active: 8.91 µM

Question: For `COc1cccc(N2[C@@H](CC(=O)O)c3ccccc3S2(=O)=O)c1`, which Potency is on record?
Answer: inconclusive [inhibitor, single point]

Question: Which Potency does the source give for `O=C(Nc1nsc(-c2ccccc2)n1)c1ccc(F)cc1` here?
Answer: inconclusive [inhibitor, single point]

Question: For `N#Cc1c(NC(=O)/C=C/c2ccco2)sc2c1CCCC2`, which Potency is on record?
Answer: inconclusive [inhibitor, full curve, poor fit]

Question: With `CCOc1ccc(Nc2nc(-c3sc(N)nc3C)cs2)cc1` as the compound, how does the Potency read?
Answer: inconclusive [inhibitor, single point]

Question: For `COc1ccc(-c2nc3ccc(C(=O)NCC(OC)OC)cc3nc2-c2ccc(OC)cc2)cc1`, which Potency is on record?
Answer: inconclusive [inhibitor, single point]

Question: With `CCCCC(=O)Nc1ccc2c(c1)nc(CCNC(=O)c1ccco1)n2C` as the compound, how does the “activity change, negative = inhibition” value read?
Answer: inactive: 11.6%

Question: For `CCc1nnc(NC(=O)CCC(=O)NC2CCCC2)s1`, which Potency is on record?
Answer: inconclusive [inhibitor, single point]

Question: For `CN(/N=C/c1ccncc1)C1=NCCN1`, which “activity change, negative = inhibition” value is on record?
Answer: inactive: 15.8%

Question: With `CCN(CC(=O)Nc1cccc(OC)c1)CC(=O)Nc1ccc(Br)c(C)c1` as the compound, how does the Potency read?
Answer: inconclusive [inhibitor, single point]

Question: Which Potency does the source give for `O=C1CC(=C(c2ccccc2)c2ccccc2)C(=O)N1CCCCN1CCN(c2ccccc2)CC1` here?
Answer: active: 1 µM

Question: For `Nc1nc(=S)c2[nH]cnc2[nH]1`, which Potency is on record?
Answer: active: 1.26 µM

Question: For `O=C(c1ccco1)N1CCN(c2ncnc3sc4c(c23)CCC4)CC1`, which Potency is on record?
Answer: inconclusive [inhibitor, single point]

Question: With `CCC1(c2ccc(C)cc2)NC(=O)N(CC(=O)Nc2cccc(S(=O)(=O)N3CCCC3)c2)C1=O` (stereo not given) as the compound, how does the Potency read?
Answer: inconclusive [inhibitor, single point]

Question: With `O=C(CCNC(=O)C1CCN(S(=O)(=O)c2ccccc2)CC1)NCc1cccc(C(F)(F)F)c1` as the compound, how does the Potency read?
Answer: inconclusive [inhibitor, single point]

Question: For `C=CCNc1nc(-c2ccccn2)nnc1-c1ccccc1`, which Potency is on record?
Answer: inconclusive [inhibitor, single point]

Question: With `CCC(NC(=O)Nc1nnc(C(F)(F)F)s1)(C(F)(F)F)C(F)(F)F` as the compound, how does the Potency read?
Answer: active: 4.47 µM

Question: Which Potency does the source give for `COc1cccc(/C=N/Nc2nc(Nc3ccc([N+](=O)[O-])cc3)nc(N3CCCC3)n2)c1O` here?
Answer: inconclusive [inhibitor, partial curve]

Question: Which Potency does the source give for `C/C(=N/O)c1ccc2ccc3ccccc3c2c1` here?
Answer: inconclusive [inhibitor, single point]

Question: For `O=C(CN1C(=O)NC2(CCCCCCC2)C1=O)NCc1ccc(Cl)cc1`, which “activity change, negative = inhibition” value is on record?
Answer: inactive: -8.42%

Question: For `O=C1c2ccccc2C(=O)c2c1ccc(O)c2O`, which “activity change, negative = inhibition” value is on record?
Answer: inactive: 15.6%

Question: With `O=C(O)c1ccc(-c2sc(Nc3ccccc3)n[n+]2-c2ccc(F)cc2)cc1` as the compound, how does the “activity change, negative = inhibition” value read?
Answer: inactive: 18.5%

Question: For `CCC(C(=O)Nc1ccc(N2CCOCC2)c(S(=O)(=O)Nc2ccccc2OC)c1)c1ccccc1` (stereo not given), which Potency is on record?
Answer: inconclusive [inhibitor, full curve]

Question: With `CCN1C(=O)/C(=C2\C=Cc3ccccc3N2CC)SC1=S` as the compound, how does the Potency read?
Answer: inconclusive [inhibitor, partial curve]

Question: With `O=C(O)c1cccc(Br)c1` as the compound, how does the Potency read?
Answer: active: 0.794 µM

Question: For `CCN(C(=O)COC(=O)/C=C/c1ccc(Cl)c(Cl)c1)c1c(N)n(Cc2ccccc2)c(=O)[nH]c1=O`, which Potency is on record?
Answer: inconclusive [inhibitor, single point]
